Data taken from PubChem BioAssay AID540267 (National Center for Advancing Translational Sciences (NCATS), 2011).
Values joined by “and” are separate entries in the source; they are usually repeats but may differ in a detail not shown here. Identical values can stand only once. Out of some 340,000 compounds screened, about 530 (0.16%) were called active. Inconclusive means that the source gave no clear call. Such entries were picked first, then a sample of the others. Cut-off read from the data, not from the text of the source: active = activity change below about -80%; inconclusive = between about -30% and that limit; inactive = weaker than that.

Assay: Small Molecules that selectively kill Giardia lamblia: qHTS;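 note: parasites exposed to compound for two days anaerobically before the ATP read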
Conditions: Giardia lamblia trophozoite viability; at 7.66 µM; active compounds read low
Outline: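 Anaerobic 48 hrs incubation at 37 deg C of 100 trophozoites/well with test compounds; ATPLite 1-Step luminescence, 15-30 min RT, reports cellular ATP as viability.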
% is set by controls: 0 for no effect and ±100 for the full control effect.

Compound | activity change
CC1CCCCN1Cc1nc2c(c(=O)n(C)c(=O)n2C)n1Cc1c(F)cccc1Cl (centres undefined) | inconclusive: -34.1% [inhibitor]
C=CCc1cc(C)ccc1OCC(O)CN1CCN(c2ccccc2)CC1 (centres undefined) | inactive: 10%
CCOc1ccc(NC(=O)c2cnccn2)cc1 | inconclusive: -39% [inhibitor]
CCn1c2ccccc2c2cc(NC(=O)COC(=O)c3ccccc3O)ccc21 | inconclusive: -41.3% [inhibitor]
CC(C)(C)C(=O)Nc1ccc(-c2nnc3n2CCCCC3)cc1 | inconclusive: -31.5% [inhibitor]
CCCCSCCCNC(=O)C1CCC(CNS(=O)(=O)c2ccc(NC(C)=O)cc2)CC1 (centres undefined) | inconclusive: -42% [inhibitor]
O=[N+]([O-])c1ccc(/C=N\NS(=O)(=O)c2ccc(F)cc2)o1 | inconclusive: -32.3% [inhibitor]
O=C(NCc1ccc(Cl)cc1)C1CCC(CNS(=O)(=O)c2ccccc2)CC1 (centres undefined) | inconclusive: -45.8% [inhibitor]
CCN(CC)S(=O)(=O)c1ccc(C)c(NC(=O)CNCCN(C(C)C)C(C)C)c1 | inactive: -2.86%
Cc1ccc(NC(=O)c2ccc3nsnc3c2)c(Cl)c1 | inconclusive: -56% [inhibitor]
Cc1nc(N2CCN(c3ccccn3)CC2)c2c(C)c(C(=O)Nc3ccc(F)cc3F)sc2n1 | inactive: 1.52%
O=C(O)c1cc(-c2ccc(-c3ccc(F)cc3)o2)nc2ccccc12 | inconclusive: -72.4% [inhibitor]
COc1ccc(NC(=O)c2cc(-c3ccc(C)o3)nc3ccccc23)c(OC)c1 | inconclusive: -30.3% [inhibitor]
O=C1N/C(=C\c2ccc(O)cc2)C(=O)c2ccccc21 | inactive: -3.11%
O=C(Nc1ccc(N2CCCCC2)cc1)c1ccc(F)cc1 | inconclusive: -48.6% [inhibitor]
O=C(CNC(=O)c1cccc(F)c1)N/N=C/c1ccc([N+](=O)[O-])s1 | inconclusive: -40.3% [inhibitor]
O=C(CC1NCCc2ccccc21)Nc1ccc(Oc2ccccc2)cc1 (centres undefined) | inactive: 10.3%
O=C(Cc1ccc(NC(=O)C2CCCN(C(=O)CCc3ccccc3)C2)cc1)Nc1ccc(C(=O)N2CCOCC2)cc1 (centres undefined) | inconclusive: -36.7% [inhibitor]
C=C1CCN(Cc2ccccc2)S(=O)(=O)c2ccccc21 | inconclusive: -30.6% [inhibitor]
Cn1c(=NC(=O)c2cnccn2)sc2ccccc21 | inconclusive: -51% [inhibitor]
CC(C)CSC1=NSC2=NC(=O)/C(=C\c3coc4ccccc4c3=O)C(=N)N12 | inconclusive: -30.8% [inhibitor]
COc1ccc(N(CC(=O)Nc2ccccc2OC)S(=O)(=O)c2ccc(OC)c(OC)c2)cc1 | inconclusive: -30.6% [inhibitor]
CC(C)c1ccc(NC(=O)[C@H]2CSCN2C(=O)[C@@H]2CCC(=O)N2)cc1 | inactive: -1.08%
O=C(Nc1ccc2[nH]c(=O)[nH]c2c1)c1ccc(Cl)c(Cl)c1 | inactive: 1.28%
O=C(Cc1ccccc1F)Nc1ccc(S(=O)(=O)N2CCCC2)cc1 | inconclusive: -33.9% [inhibitor]
S=C(NCc1cccnc1)Nc1ccc(Cl)cc1Cl | inconclusive: -31% [inhibitor]
S=c1[nH]c2ccc3ccccc3c2[nH]1 | inconclusive: -33.9% [inhibitor]

Compound | activity change
Cc1ccc(-c2cc(-c3ccccc3)no2)c(O)c1 | inconclusive: -46% [inhibitor]
CCCCOC(=O)Nc1nnc(CC(=O)NCc2ccccc2)s1 | inconclusive: -35.1% [inhibitor]
COc1ccccc1/C=C1/C(=O)ON=C1C | inconclusive: -37.6% [inhibitor]
O=C(Nc1cc(S(=O)(=O)N2CCOCC2)ccc1Cl)c1cc2ccccc2o1 | inconclusive: -31.8% [inhibitor]
Cc1ccc(S(=O)(=O)CCC(=O)OCC(=O)Nc2cc(F)ccc2C)cc1 | inactive: 2.76%
COc1ccc(-c2cc(C(=O)NC3CC3)c3ccccc3n2)cc1 | inconclusive: -32% [inhibitor]
CCC(C)(C)NC(=O)CCn1c(-c2ccccc2)cc(C(C)=O)c1C | inconclusive: -31.1% [inhibitor]
Cn1c([N+](=O)[O-])cnc1COC(N)=O | active: -90.1%
O=C1CC(c2ccc(F)cc2)Sc2ccccc2N1 (centres undefined) | inactive: -5.91%
O=C(/C=C/C=C/c1ccccc1)CC1(O)C(=O)N(CCc2ccccc2)c2ccccc21 (centres undefined) | inactive: 2.45%
CC(C)C(=O)N1CCN(CCN2C(=O)c3cccc4cccc(c34)C2=O)CC1 | inactive: -17.9%
CC1(C)Cc2c(sc(NC(=O)C(=O)N3CCN(CCO)CC3)c2C(N)=O)CO1 | inactive: 0.506%
COc1ccc(CC(=O)Nc2cc(=O)n(C)c(=O)n2C)cc1 | inconclusive: -42.8% [inhibitor]
C=CCn1c(SCC(=O)NC2CCCC2)nnc1-c1ccccn1 | inactive: 11.4%
COc1ccc(/C=N/OCC(=O)N=Nc2c(O)[nH]c3ccc(Br)cc23)cc1OC | inactive: -10.7%
CC(=O)c1ccc(Cc2ccc(C(C)=O)cc2)cc1 | inconclusive: -31.3% [inhibitor]
CCN(C(=O)CN1C(=O)COc2ccc(S(=O)(=O)N3CCOCC3)cc21)c1ccc(OC)cc1 | inactive: 32.3%
Cc1ccc(-c2cc(C(=O)N/N=C/C=C/c3ccco3)c3ccccc3n2)cc1C | inconclusive: -45.8% [inhibitor]
COc1ccc(NC(=O)c2ccc([N+](=O)[O-])o2)cc1 | active: -94.9%
Cc1cc(-c2nnc(CSc3nnc(NC(=O)c4ccc(C(C)(C)C)cc4)s3)o2)ccc1[N+](=O)[O-] | inconclusive: -70.6% [inhibitor]
COc1ccc(-n2nc3cc(C)c(NC(C)=O)cc3n2)cc1 | inconclusive: -63.5% [inhibitor]
Cc1ccnc(NC(=O)CCC(=O)N(CC(=O)NC2CCCCC2)c2cccc(C)c2C)c1 | inconclusive: -37.8% [inhibitor]
CCN(c1ccccc1)S(=O)(=O)c1c(-c2ccc(C)cc2)csc1C(=O)OC | inactive: 3.61%
CC(C)CC(=O)N(c1nnc(-c2cccnc2)s1)C1CCCC1 | inconclusive: -33.8% [inhibitor]
CN1C(=O)C(N=Nc2ccc([N+](=O)[O-])cc2)SC1=S (centres undefined) | inconclusive: -32.4% [inhibitor]
CCCCCn1c(CN2CCCCC2CC)nc2c1c(=O)n(C)c(=O)n2C (centres undefined) | inconclusive: -36.1% [inhibitor]
CCc1nn2cc(-c3ccccc3)nc2s1 | inconclusive: -30.5% [inhibitor]

Compound | activity change
O=C(NCCc1cnn(-c2ccccc2)c1)c1cc(COc2c(F)cccc2F)on1 | inactive: 21.3%
O=C(Nc1ncc([N+](=O)[O-])s1)c1cccs1 | active: -90.7% and active: -87%
COc1ccc(-c2nnc(SCC(=O)c3cc(C)n(Cc4cccs4)c3C)o2)cc1 | inactive: 9.84%
O=C(O)Cn1cnc2c(=S)nc[nH]c21 | inactive: 18.7%
O=c1c2ccccc2sc2ccc(C#CC3(O)CCCCC3)cc12 | inconclusive: -70.1% [inhibitor]
Cn1ncc2c(N3CCN(c4ccccc4F)CC3)ncnc21 | inactive: -11.2%
CCOc1ccc(CN(C)C(=O)CNC(=O)C2CCCCC2)cc1 | inconclusive: -35.8% [inhibitor]
O=C(/C=C/c1ccc([N+](=O)[O-])cc1)NCc1ccco1 | inconclusive: -33.4% [inhibitor]
Cc1ccc(C(OCC(O)CNCc2ccc(F)cc2)c2ccccc2)cc1 (centres undefined) | inactive: 30%
OC1=C(O)c2nc3cc(C(F)(F)F)ccc3nc21 | inconclusive: -30.9% [inhibitor]
Cc1nc(-c2ccc(NC(=O)c3cccs3)cc2)cs1 | inconclusive: -70.3% [inhibitor]
CN(C)c1ccc(Nc2nc(N)c3ccccc3n2)cc1 | inconclusive: -78.1% [inhibitor]
COc1ccc(N(CC(=O)NCCC2=CCCCC2)S(=O)(=O)c2ccccc2)cc1OC | inconclusive: -32.6% [inhibitor]
CCOC(=O)c1c(C)[nH]c(C)c1C(=O)CSc1nc2ccccc2[nH]1 | inconclusive: -33.7% [inhibitor]
CC(=O)C1=C(c2ccccc2)NC(=S)NC1c1cc(Cl)c(OC(C)C)c(Cl)c1 (centres undefined) | inactive: 20.5%
Cc1coc2cc3oc(=O)ccc3cc12 | inconclusive: -40.6% [inhibitor]
O=C(Nc1ccc(S(=O)(=O)N2CCOCC2)cc1)C1CC1 | inactive: -9.84%
Cc1ccc(NC(=O)c2ccc(CN3CC(=O)N4CCCCC4C3=O)cc2)c(C)c1 (centres undefined) | inconclusive: -42.9% [inhibitor]
Cc1ccc(-c2ccccc2NC(=O)CS(=O)CC(=O)Nc2ccc(C)c(Cl)c2)o1 (centres undefined) | inconclusive: -32.2% [inhibitor]
CC(=O)c1ccc(NC(=O)C2CCN(S(=O)(=O)c3cccs3)CC2)cc1 | inactive: -2.67%
CCOc1ccccc1C(=O)NC(C(=O)Nc1cccnc1)C(C)C (centres undefined) | inconclusive: -31.5% [inhibitor]
CCOc1nc(NCc2ccco2)nc(Nc2ccc(OC)cc2)n1 | inactive: 6.41%
COc1ccc(N(Cc2ccccc2)C(=O)CSc2nnc(Cn3nnc4ccccc43)o2)cc1 | inactive: -25.7%
CCSc1nnc(NC(=O)[C@@H](NC(=O)c2ccccc2F)C(C)C)s1 | inconclusive: -31.3% [inhibitor]
C=C1C(=O)C=C2CN(C(=O)c3ccccc3)[C@@](Cc3ccc(F)cc3)(C(=O)OC)[C@@H]12 | inconclusive: -31.9% [inhibitor]
